# Measurements reported in PubChem BioAssay AID1865 (National Center for Advancing Translational Sciences (NCATS), 2009).
# The campaign covered roughly 280,000 compounds. About 540 (0.19%) were called active. Inconclusive means that the source gave no clear call. Such entries were picked first, then a sample of the others. Calls follow the shape of the dose curve; as a rule, active = well fitted activation curve with a large enough effect; inconclusive = small, poorly fitted or top-dose-only effect; inactive = flat fitted curve, though single readings scatter. A potency beside an inconclusive call is a rough fit, not a confirmed value.
# Experiment: Quantitative High-Throughput Screen for Regulators of Epigenetic Control; also: nearly all actives have a fitted effect of over 60% in size
# Conditions: murine LDR cells, GFP reporter derepression, 30 h; series mostly up to 53.9 µM
# How it was run: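 GFP-positive cell count by laser-scanning cytometry (objects 20–120 um) after 30 h, 37 C compound exposure of murine LDR cells; reporter is CMV-GFP integrated at a silenced locus, inducible by HDAC or DNMT inhibitors.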
# Potency is read from the fitted curve at half-maximal effect; tags tell the direction and shape of the fitted curve.
row,Structure (SMILES),Potency
1,Cc1cccc2sc(NC(=O)C3CCCN(S(=O)(=O)c4cccc5nonc45)C3)nc12 (configuration not stated),"inconclusive: 35.5 µM [activator, single point]"
2,CC(=O)Nc1ccc(NC(=O)c2oc3ccc4c(c3c2C)C(=O)CC(C)(C)O4)cc1,"inconclusive: 14.1 µM [activator, single point]"
3,Cc1ccc(-c2ccc(=O)n(CC(=O)Nc3cccc(C#N)c3)n2)cc1,"inconclusive: 35.5 µM [activator, single point]"
4,COc1ccc(-c2cc(C(F)(F)F)n3nc(C(=O)NCC45CC6CC(CC(C6)C4)C5)cc3n2)cc1,"inconclusive: 35.5 µM [activator, single point]"
5,S=c1[nH]nc(-c2cc(-c3ccccc3)n[nH]2)n1/N=C/c1c(Cl)cccc1Cl,inactive
6,CCCCN1C(=O)/C(=C/C=C2/CC(C)(C)CN2C)SC1=S,active: 14.1 µM
7,CCN(CC)CCN(Cc1cc2ccc(C)cc2[nH]c1=O)C(=O)Nc1ccc(Cl)cc1,"inconclusive: 17.8 µM [activator, single point]"
8,COc1ccc2[nH]cc(C(=O)CCl)c2c1,"inconclusive: 3.16 µM [activator, single point]"
9,COc1ccc(OC)c(C2CC(=O)N3CN(c4ccc(C)c(Cl)c4)CSC3=C2C#N)c1 (configuration not stated),inactive
10,O=C(Nc1ccc2oc(-c3ccc4ccccc4c3)nc2c1)c1ccccc1F,"inconclusive: 35.5 µM [activator, single point]"
11,CCOC(=O)C1=C(Cc2ccc(OC)cc2)C(=O)c2ccccc2C1=O,"inconclusive: 31.6 µM [activator, single point]"
12,N#CC[n+]1cc(-c2ccc(Cl)cc2)n2c1CCC2,inactive
13,O=P(O)(O)O[C@@H]1[C@H](O)[C@H](O)[C@@H](OP(=O)(O)O)[C@H](OP(=O)(O)O)[C@H]1O,inactive
14,COc1ccc(OC)c(C(C)NC(=O)Cn2c(=O)cc(C)c3c(C)nn(-c4ccc(C)cc4)c32)c1 (configuration not stated),"inconclusive: 22.4 µM [activator, single point]"
15,COCCNC(=O)c1cc(-c2ccccc2OC)on1,inactive
16,CC1C/C(=C/c2ccncc2)C(=O)/C(=C/c2ccncc2)C1 (configuration not stated),"inconclusive: 6.31 µM [activator, single point]"
17,Cc1cc(N2CCCC2)ccc1/C=C1/C(=O)N(C)C(=S)N1C,"inconclusive: 11.2 µM [activator, partial curve]"
18,COc1ccc(-c2cc(=O)c3c(O)cc(O)c(-c4cc(-c5cc(=O)c6c(O)cc(O)cc6o5)ccc4OC)c3o2)cc1,"inconclusive: 31.6 µM [activator, single point]"
19,Oc1ccc(/C=N/Nc2nc(N3CCCCCC3)nc(N3CCCCCC3)n2)c(O)c1,"inconclusive: 15.8 µM [activator, single point]"
20,COC(=O)c1ccc(-c2csc(NC(=O)c3ccc(S(=O)(=O)N4CCc5ccccc5C4)cc3)n2)cc1,inactive
21,CCOCc1cc(CN2CCN(c3cccc(Cl)c3)CC2)c(O)c2ncccc12,active: 3.55 µM
22,COc1ccc(N=C/C=C2\C=C(c3ccccc3)OC(C)(C)O2)cc1,"inconclusive: 35.5 µM [activator, single point]"
23,Nc1c(Cl)ncnc1N/N=C/c1ccc2ccccc2n1,"inconclusive: 5.62 µM [activator, single point]"

row,Structure (SMILES),Potency
1,COc1ccc(NC(=O)CN2CCCN(S(=O)(=O)c3ccc(F)cc3)CC2)c(OC)c1,inactive
2,O=C(O)c1ccccc1NS(=O)(=O)c1ccccc1F,inactive
3,N#C/C(=C/c1ccc(N2CCCCC2)o1)C(=O)NCCc1c[nH]c2ccccc12,"inconclusive: 20 µM [activator, single point]"
4,COc1ccc2nc(C)c(C(N)=O)cc2c1,inactive
5,COCC(=O)N(Cc1cc2ccccc2[nH]c1=O)c1ccc(OC)cc1,"inconclusive: 6.31 µM [activator, single point]"
6,Cc1ccc(C)c(S(=O)(=O)N2CCN(Cc3ccc(O)c4ncccc34)CC2)c1,"inconclusive: 22.4 µM [activator, single point]"
7,CCOc1ccc(N(C(=O)CC(C)C)S(=O)(=O)c2ccc3c(c2)oc(=O)n3C)cc1,"inconclusive: 25.1 µM [activator, single point]"
8,COc1ccc(-c2nc(C#N)c(N3CCN(c4cccc(Cl)c4)CC3)o2)cc1OC,inactive
9,COc1ccc(C2=NOC(C(=O)Nc3cc(C)on3)C2)cc1OC (configuration not stated),"inconclusive: 35.5 µM [activator, single point]"
10,CCOC(=O)c1c(NC(=O)c2ccc(S(=O)(=O)N3CCC(C)CC3)cc2)sc2c1CCN(C)C2,"inconclusive: 10 µM [activator, partial curve]"
11,O=C(Nc1nc2ccc(S(=O)(=O)N3CCCC3)cc2s1)c1cccc(F)c1,"inconclusive: 25.1 µM [activator, single point]"
12,Cc1ccccc1CS(=O)(=O)CC1Nc2ccc(C(=O)NCc3ccc(Cl)cc3)cc2NC1=O (configuration not stated),"inconclusive: 28.2 µM [activator, single point]"
13,CCOc1cc(C(=O)N2CC(=O)Nc3ccc(C)cc3C2c2ccccc2)cc(OCC)c1OCC (configuration not stated),"inconclusive: 15.8 µM [activator, single point]"
14,O=C(O)CCc1ccc(-c2cccs2)o1,"inconclusive: 31.6 µM [activator, single point]"
15,COc1ccc(NC(=O)/C(C#N)=C\c2ccc(Br)o2)cc1,inactive
16,N/C(=N\OC(=O)N1CCOCC1)c1ccc(Cl)cc1,inactive
17,CC(C)(C)OC(=O)NCCCCCNC(=O)c1[nH]cnc1C(=O)N[C@@H](Cc1ccccc1)C(=O)OCc1ccccc1,"inconclusive: 35.5 µM [activator, single point]"
18,Cc1ccc(S(=O)(=O)Cc2ccc(C(=O)N3CCCC3)o2)cc1,"inconclusive: 8.91 µM [activator, partial curve, poor fit]"
19,CCCCOc1ccc(C(=O)Nc2nnc3n2CCS3)cc1,"inconclusive: 31.6 µM [activator, single point]"
20,CCOC(=O)c1ccc(NC(=O)Nc2ccc3c4c(cccc24)C(=O)N3CC)cc1,"inconclusive: 31.6 µM [activator, single point]"
21,COc1ccc(OC)c(-c2csc(NC(=O)Cn3[nH]c(=O)c4ccccc4c3=O)n2)c1,"inconclusive: 35.5 µM [activator, single point]"
22,Cn1c(SCC(=O)N2CCCc3ccccc32)ncc(C(=O)Nc2ccc(F)cc2)c1=O,"inconclusive: 20 µM [activator, single point]"
23,O=C(CCS(=O)(=O)c1ccccc1)Nc1nc2c(s1)COc1ccccc1-2,"inconclusive: 20 µM [activator, single point]"

row,Structure (SMILES),Potency
1,CC(=O)NC(=S)c1c(N)n(Cc2ccccc2)c(=O)n(C)c1=O,"inconclusive: 25.1 µM [activator, single point]"
2,CCCCC1C(=O)CC[C@H]2[C@@H]1CC(=O)[C@@H]2C/C=C\CCCC(=O)O (some centres not stated),"inconclusive: 35.5 µM [activator, single point]"
3,COc1cccc(CNC(=O)C(NS(=O)(=O)c2cccs2)C(C)C)c1 (configuration not stated),inactive
4,COc1ccc2oc(C(=O)OC/C(O)=C(\C#N)c3nc4ccccc4[nH]3)c(C)c2c1,"inconclusive: 35.5 µM [activator, single point]"
5,COC(=O)c1c(NC(=O)CCC(=O)O)sc(Cc2ccccc2)c1C,inactive
6,CCCSc1oc(-c2cccs2)nc1S(=O)(=O)c1ccc(Cl)cc1,inactive
7,Cc1ccc(NC(=O)COc2ccc(/C=N/NC(=O)CSCc3ccccc3)cc2)cc1,inactive
8,COc1ccc(/C=C/C(=O)c2ccccc2)cc1Cn1nnc2ccccc21,"inconclusive: 35.5 µM [activator, single point]"
9,Cc1ccc(C)c(NC(=O)C(OC(=O)c2ccc(C)s2)c2ccccc2)c1 (configuration not stated),"inconclusive: 31.6 µM [activator, single point]"
10,O=C1CC(Sc2cccs2)C(=O)N1c1ccccc1 (configuration not stated),inactive
11,O=C1c2cccnc2C(Nc2ccccc2Br)N1Cc1ccco1 (configuration not stated),inactive
12,CC(C)C(NC(=O)OCc1ccccc1)C(=O)N1CCOCCOCCOCC1 (configuration not stated),"inconclusive: 35.5 µM [activator, single point]"
13,CCCN1C(=O)/C(=C/c2c(NCCCOC(C)C)nc3c(C)cccn3c2=O)SC1=S,"inconclusive: 3.55 µM [activator, partial curve]"
14,C/C(=N\NC(=O)C1COc2ccccc2O1)c1ccccn1 (configuration not stated),"inconclusive: 31.6 µM [activator, single point]"
15,COc1cc(SC#N)ccc1N=Cc1c(C)[nH]n(-c2cccc3ccccc23)c1=O,"inconclusive: 0.398 µM [activator, partial curve]"
16,Cc1ccccc1-n1c(/C=C/c2c(C)n(C)c3ccccc23)nc2ccccc2c1=O,"inconclusive: 31.6 µM [activator, single point]"
17,COc1ccc2nc(N3C(=O)CNC3=S)sc2c1,"inconclusive: 28.2 µM [activator, single point]"
18,N#C/C(=C\c1ccccn1)c1nc2ccccc2s1,"inconclusive: 35.5 µM [activator, single point]"
19,Cc1ccc(-c2nnn3c2nc(Cl)c2ccccc23)cc1,"inconclusive: 35.5 µM [activator, single point]"
20,O=C(Nc1ccccc1)c1cc([N+](=O)[O-])ccc1Cl,"inconclusive: 7.08 µM [activator, full curve]"
21,COc1ccc(-c2nc3ccccc3o2)cc1NC(=O)C(C)Oc1ccc(Cl)cc1Cl (configuration not stated),"inconclusive: 28.2 µM [activator, single point]"
